Test results: publication PMC4336329 (PLoS ONE, 2015)
About 2,200 (0.71%) of roughly 310,000 compounds showed an effect of 50% or more. The effect is printed as a negative number. This is one part of the list. Where a SMILES comes first, the peptide text is derived from it. [ ]: non-standard residue; d: D form. The star is where a group is joined. Cbz = O=C(OCc1ccccc1)*

These compounds were tested against human ether-à-go-go-related gene (hERG) potassium channel (human, UniProt Q12809) (assay: primary screen, population patch clamp on CHO cells stably expressing hERG).
Sequence of human ether-à-go-go-related gene (hERG) potassium channel (Q12809 whole entry, looked up): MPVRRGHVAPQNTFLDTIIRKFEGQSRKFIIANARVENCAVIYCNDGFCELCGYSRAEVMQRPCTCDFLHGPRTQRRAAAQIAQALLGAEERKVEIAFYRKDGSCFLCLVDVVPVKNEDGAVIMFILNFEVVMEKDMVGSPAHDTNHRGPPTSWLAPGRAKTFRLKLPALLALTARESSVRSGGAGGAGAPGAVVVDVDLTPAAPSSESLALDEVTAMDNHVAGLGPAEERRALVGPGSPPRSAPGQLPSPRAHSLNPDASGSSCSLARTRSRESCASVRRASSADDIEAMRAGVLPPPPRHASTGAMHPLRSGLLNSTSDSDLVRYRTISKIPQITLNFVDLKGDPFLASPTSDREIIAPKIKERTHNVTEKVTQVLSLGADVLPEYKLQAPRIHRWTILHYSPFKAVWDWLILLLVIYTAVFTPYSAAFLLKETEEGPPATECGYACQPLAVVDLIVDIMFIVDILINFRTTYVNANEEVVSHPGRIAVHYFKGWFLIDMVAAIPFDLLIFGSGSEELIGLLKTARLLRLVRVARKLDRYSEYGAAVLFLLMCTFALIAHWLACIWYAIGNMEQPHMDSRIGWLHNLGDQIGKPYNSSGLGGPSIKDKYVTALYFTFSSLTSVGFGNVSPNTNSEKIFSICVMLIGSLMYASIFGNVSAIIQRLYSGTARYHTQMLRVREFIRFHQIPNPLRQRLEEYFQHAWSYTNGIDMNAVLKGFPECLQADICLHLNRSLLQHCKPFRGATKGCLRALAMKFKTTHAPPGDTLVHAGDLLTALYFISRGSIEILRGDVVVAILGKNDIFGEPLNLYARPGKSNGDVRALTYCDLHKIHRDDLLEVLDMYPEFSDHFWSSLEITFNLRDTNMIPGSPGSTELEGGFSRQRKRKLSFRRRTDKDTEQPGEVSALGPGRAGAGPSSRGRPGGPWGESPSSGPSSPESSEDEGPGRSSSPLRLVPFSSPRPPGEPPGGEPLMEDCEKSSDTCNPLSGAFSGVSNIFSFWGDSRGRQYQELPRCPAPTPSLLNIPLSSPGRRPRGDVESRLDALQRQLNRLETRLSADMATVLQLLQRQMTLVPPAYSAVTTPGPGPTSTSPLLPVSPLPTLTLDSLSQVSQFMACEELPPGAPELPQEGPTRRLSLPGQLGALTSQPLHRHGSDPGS

SMILES | hERG current change (%, negative = inhibition) at 1uM [%]
CC(OC(=O)Cc1coc2ccc3ccccc3c12)C(=O)Nc1ncc(Cl)cc1Cl (stereo not shown) | -1.25
Cc1ccc(C)c(NC(=O)C2CC3c4ccccc4C2c2ccccc23)c1 (stereo not shown) | 9.03
COC(=O)/C=C1/N/C(=N\c2nc(C)cc(C)n2)N(c2ccc(C)c(C)c2)C1=O | -2.26
Cc1cccn2c(=O)c3cc(C(=O)NCCN4CCOCC4)c(=N)n(CCCN4CCOCC4)c3nc12 | 16.7
COc1ccc(C)cc1NC(=O)CCN1CCCC1 | 10.6
COc1ccc(N2CCC(CNC(=S)Nc3cc(C)ccc3C)C2)cc1 (stereo not shown) | 8.12
COC(=O)c1c(N2C(=O)Nc3ccccc3N2O)sc(C)c1C | 10.6
COC(=O)COc1ccc(C2NC(=O)NC(c3ccccc3)=C2C(C)=O)cc1OC (stereo not shown) | 14.5
COc1ccc(/C=N/NC(=O)Cc2ccc(Cl)cc2)cc1OC | 5.65
CN(C)C1(CNC(=O)C2CCN(S(=O)(=O)c3cc(Cl)ccc3Cl)CC2)CCCCC1 | -32.8
CC(=O)Nc1ccccc1-c1nc2ccc(C(=O)N3CCN(c4cc(C)ccc4C)CC3)cc2[nH]c1=O | 2.69
CC1C(=O)Nc2ccc(S(=O)(=O)N3CCN(c4ccccc4F)CC3)cc2NC1=O (stereo not shown) | -12.7
COc1ccc(Cn2c(C)c(C)c(C#N)c2NC(=O)Nc2cccc(Cl)c2)cc1 | 8.52
COc1ccc(N2CCN(C(=O)COC(=O)c3ccc(OC(F)F)cc3)CC2)cc1 | -5.89
COC(=O)c1ccc(COc2ccc(C=O)cc2)o1 | 6.14
O=C(Nc1ccccc1)c1ccc(S(=O)(=O)N2CCC(C(=O)O)CC2)cc1 | 19
Cc1ccc(C2C(C(=O)c3ccco3)=C(O)C(=O)N2c2ncccn2)cc1 (stereo not shown) | 9.03
COc1ccc(-n2cnnc2SCc2cnc(-c3ccccc3)s2)cc1 | 10.4
COCC(=O)Nc1nnc(Cc2ccc(OC)cc2)s1 | 10.5
CC(C)(C)C1CCC(=NNC(=O)c2ccccc2-n2cccc2)CC1 (stereo not shown) | 11.6
COc1ccccc1C(c1nnnn1C1CCCC1)N1CCN2CCCC2C1 (stereo not shown) | 0.609
CCCCn1c(N)c(N(CC)C(=O)C2=NN(c3ccccc3)C(=O)CC2)c(=O)[nH]c1=O | 12.6

SMILES | hERG current change (%, negative = inhibition) at 1uM [%]
COC(=O)[C@H](CCSC)NC(=O)[C@@H](Cc1cnc[nH]1)NC(=O)OCc1ccccc1 (Cbz-[dH]-Met-OMe) | 17.3
CC1CN(c2nc(Nc3ccccc3F)nc(N)c2[N+](=O)[O-])CC(C)O1 (stereo not shown) | -5.06
Cn1cccc1-c1nc2ccccc2n1C | 9.17
O=C(NNS(=O)(=O)c1ccc(F)cc1)c1ccccc1 | 15.9
CC(C)C(c1nnnn1C1CCCCC1)N1CCc2ccccc2C1 (stereo not shown) | 6.57
CN(c1ccccc1)S(=O)(=O)c1cccc(NC(=O)Cn2cnc3ccccc3c2=O)c1 | 3.98
Cc1ccc(S(=O)(=O)N(Cc2ccc(F)cc2)Cc2ccco2)cc1 | 12.5
CCOC(=O)N1CCC(N(CCN(C)C)C(=S)Nc2ccccc2OC)CC1 | -6.5
CCN(CC)c1nc(-c2ccccc2)ncc1S(=O)(=O)c1ccc(C)cc1 | 12.9
COc1ccc(CNC(=O)CN(Cc2ccccc2)C(=O)c2csnn2)cc1 | -13.1
Cc1ccc(NC(=O)c2ccco2)c(NC(=O)C2CCCO2)c1 (stereo not shown) | 6.38
Cl.O=C(O)CNCC1COc2ccccc2O1 (stereo not shown) | -1.33
CCOC(=O)C1CCCN(c2ncnc3c2oc2ccccc23)C1.Cl (stereo not shown) | 4.28
O=C(Cc1ccccc1)Nc1ccccc1C(=O)NCC1CCCO1 (stereo not shown) | 10.1
CC(OC(=O)c1cc2c(ccc3ccccc32)oc1=O)c1nc2ccccc2s1 (stereo not shown) | 12.1
O=C(Nc1cccc2nsnc12)c1cccs1 | 23.3
C=C(C)CSc1nnc([C@@H](N)Cc2c[nH]c3ccccc23)o1.Cl | 6.8
Cc1ccccc1N1CC(C(=O)N2CCCCCC2)CC1=O (stereo not shown) | 4.84
CCCCc1nnc(NC(=O)C2CC(=O)N(c3ccc4c(c3)OCCO4)C2)s1 (stereo not shown) | 5.48
COc1cc(S(=O)(=O)NCCCn2ccnc2)ccc1F | 15.4
O=C(CNC(=O)c1cc(=O)[nH]c2ccccc12)Nc1ccc(F)c(F)c1 | 5.43
COc1ccc(N2C(=O)CC(Nc3ccc(F)cc3)C2=O)c([N+](=O)[O-])c1 (stereo not shown) | 10.2

SMILES | hERG current change (%, negative = inhibition) at 1uM [%]
COCCNC(=O)CCCn1c(=O)c2cc(OC)c(OC)cc2n(CC(=O)Nc2ccc(F)cc2)c1=O | 10.2
CC(C)(C)NS(=O)(=O)c1ccc(N2C(=O)c3ccccc3C2=O)cc1 | 5.85
Cc1c(-c2cc(Br)ccc2O)nc2cc3c(cc2c1C)OCO3.Cl | 9.02
CSc1ccccc1NC(=O)C1CC(c2c(F)cccc2Cl)=NO1 (stereo not shown) | 11.4
COc1ccc(Cl)cc1C(=O)CSc1nnnn1C1CCCC1 | 2.52
CCCCN(CCCC)CCNC(=O)CN1C(=O)CSc2ccc(S(=O)(=O)N3CCOCC3)cc21 | -3.76
O=C(NCc1ccc2c(c1)OCO2)c1ccc2snnc2c1 | 1.17
CC(=O)Oc1ccc2nc(/C=C/c3ccccc3)oc(=O)c2c1 | 16.6
CC1=CC(c2ccccc2)n2ncnc2N1 (stereo not shown) | 3.76
CCN1CCN(c2ccc(NC(=O)c3ccc(OC)c(S(=O)(=O)N4CCCC4)c3)cc2)CC1 | 12.6
Cc1oc2ccc(NS(=O)(=O)c3ccccc3)cc2c1C(=O)Nc1ccccc1 | 34.4
COc1cc(C(=O)N[C@H](C(=O)NC2CCCCCC2)C(C)C)cc(OC)c1OC | -1.97
C=CCn1c(SCC(=O)NCc2ccco2)nc2sc3c(c2c1=O)CCC3 | 1.48
CCC1CCCCN1C(=O)COC(=O)c1cc2ccccc2cc1O (stereo not shown) | 14.5
O=C(Nc1cccc(NC(=O)c2sc3ccccc3c2Cl)c1)c1ccco1 | 3.79
Cc1c(C(=O)Oc2ccc(Cl)cc2)n(C)oc1=O | 13.1
CCC(C)COC(=O)C(C#N)c1nc2ccccc2nc1N1CCCCC1 (stereo not shown) | 0.759
CC(=O)Nc1ccc(S(=O)(=O)N2CCC(NC(=O)c3ccco3)CC2)cc1 | 9.57
NS(=O)(=O)c1ccc(NC(=S)NC2CC2)cc1 | 10.9
CCCCNC(=O)C1CCCN(S(=O)(=O)c2ccc(S(=O)(=O)NCC(C)C)cc2)C1 (stereo not shown) | -3.36
CCSc1nc2cc(OC)c(OC)cc2c(=O)n1CCc1ccccc1 | 2.31
O=C(COc1ccccc1)NCC(c1ccco1)N1CCN(c2ccc(F)cc2)CC1 (stereo not shown) | -2.86

SMILES | hERG current change (%, negative = inhibition) at 1uM [%]
O=C(Cn1cc2c(n1)CCCCC2)Nc1ccccc1Br | 5.69
N#Cc1ccc(CN2CCN(C(=O)c3cccc(S(=O)(=O)N4CCCCCC4)c3)CC2)cc1 | -51.3
O=S(=O)(Nc1ccccc1)c1ccc(NS(=O)(=O)c2c(F)cccc2F)cc1 | 7.94
O=C(C(NS(=O)(=O)c1cccs1)c1ccccc1)N1CCN(c2ccccc2F)CC1 (stereo not shown) | 5.15
Cc1[nH]nc(N=CC2=C(O)CC(C)(C)CC2=O)c1-c1ccccc1 | 6.06
N/C(=N\OC(=O)Cc1ccc(-c2ccccc2)cc1)c1ccccn1 | 14.3
Cc1cc(C(F)F)nn1CC(=O)Nc1cc([N+](=O)[O-])ccc1F | -2.48
CCOC(=O)CSc1nnc(-c2c[nH]c3ccccc23)n1CC | -0.0361
CN(Cc1nccs1)C(=O)CC1C(=O)NCCN1Cc1ccc(-c2ccccc2)cc1 (stereo not shown) | 7.07
CCN(CC)S(=O)(=O)c1cc(-c2nn(C)c(=O)c3ccccc23)ccc1C | 3.5
CCCC1=C(C(=O)OCC)C(c2ccc(NC(C)=O)cc2)NC(=O)N1 (stereo not shown) | 0.486
Cc1cccc(CCNC(=O)COc2cc(=O)n(C)c3ccccc23)c1 | 6.76
CCC(Oc1ccccc1)C(=O)Nc1ccccn1 (stereo not shown) | 17.5
CCCNC(=O)Nc1ccc(F)c(Cl)c1 | 7.95
COc1cccc(C(C[N+](=O)[O-])c2c(C)[nH]n(-c3ccccc3)c2=O)c1 (stereo not shown) | 16
COc1ccccc1N1CCN(C(=O)C(=O)N/N=C/c2cccc(O)c2)CC1 | -0.578
COc1ccc(NC(=O)N2CCN(CCC#N)CC2)cc1 | 11.6
S=C(Nc1ccccc1Cl)Nc1ccc(Cl)cc1Cl | 12.4
O=C(COc1ccccc1)N1CCN=C1SCc1cccnc1 | 17.3
S=C(NC1CCCCC1)N1CCc2ccccc2C1 | 4.39
CCCc1c(C(=O)Nc2ccc(C(F)(F)F)cc2)cnn1-c1ccccc1 | 14.4
CCc1ccc(NC(=O)CN(c2ccc3c(c2)OCO3)S(=O)(=O)c2c(C)noc2C)cc1 | 9.89
